Measurements published in article PMC4336329 (PLoS ONE, 2015).
Among all 310,000 compounds or so, about 14,000 (4.5%) showed an effect of 50% or more. Effects have a minus sign here. This is one part of the list.

These compounds were tested against human ether-à-go-go-related gene (hERG) potassium channel (human, UniProt Q12809) (assay: primary screen, population patch clamp on CHO cells stably expressing hERG).
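Also: peak tail current of the secondary pulse compared with the same well before compound.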

Sequence of human ether-à-go-go-related gene (hERG) potassium channel (Q12809 whole entry, looked up): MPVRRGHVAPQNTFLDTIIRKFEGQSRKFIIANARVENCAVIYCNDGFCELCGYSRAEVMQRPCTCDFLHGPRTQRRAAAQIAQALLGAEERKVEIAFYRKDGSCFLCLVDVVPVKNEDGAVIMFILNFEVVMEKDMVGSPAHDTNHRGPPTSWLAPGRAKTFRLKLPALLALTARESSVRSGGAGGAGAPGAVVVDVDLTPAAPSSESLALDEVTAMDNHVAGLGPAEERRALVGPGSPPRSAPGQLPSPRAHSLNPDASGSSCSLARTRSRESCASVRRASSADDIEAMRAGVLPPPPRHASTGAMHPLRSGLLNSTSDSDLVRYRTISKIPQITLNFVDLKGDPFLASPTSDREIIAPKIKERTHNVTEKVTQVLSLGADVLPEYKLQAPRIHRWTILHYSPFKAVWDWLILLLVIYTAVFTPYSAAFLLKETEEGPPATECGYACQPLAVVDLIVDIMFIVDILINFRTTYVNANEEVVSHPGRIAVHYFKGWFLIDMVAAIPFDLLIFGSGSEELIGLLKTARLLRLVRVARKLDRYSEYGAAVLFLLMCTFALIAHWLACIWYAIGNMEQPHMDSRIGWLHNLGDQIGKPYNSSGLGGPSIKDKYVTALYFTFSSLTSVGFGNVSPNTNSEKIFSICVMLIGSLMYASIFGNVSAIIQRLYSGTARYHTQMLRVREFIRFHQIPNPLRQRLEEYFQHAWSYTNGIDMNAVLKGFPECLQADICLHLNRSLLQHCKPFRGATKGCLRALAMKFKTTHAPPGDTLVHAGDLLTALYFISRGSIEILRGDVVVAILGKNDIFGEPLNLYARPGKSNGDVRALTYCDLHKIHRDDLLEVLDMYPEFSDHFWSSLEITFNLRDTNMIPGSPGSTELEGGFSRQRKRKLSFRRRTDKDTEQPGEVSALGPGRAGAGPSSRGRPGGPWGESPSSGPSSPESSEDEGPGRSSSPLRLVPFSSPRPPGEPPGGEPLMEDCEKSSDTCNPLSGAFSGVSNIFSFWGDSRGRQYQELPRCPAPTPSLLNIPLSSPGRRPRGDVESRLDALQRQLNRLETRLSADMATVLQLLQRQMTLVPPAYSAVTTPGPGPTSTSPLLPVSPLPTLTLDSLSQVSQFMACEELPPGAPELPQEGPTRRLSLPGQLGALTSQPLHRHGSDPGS

SMILES | hERG current change (%, negative = inhibition) at 10uM
CC(N)Cc1cn(Cc2ccccc2)c2ccccc12.Cl (stereo not shown) | -7.76%
CCCN(CCC)CCNC(=O)C1CCCN(S(=O)(=O)c2ccc3c(c2)oc(=O)n3C)C1 (stereo not shown) | 10.7%
CCN(CC)S(=O)(=O)c1cccc(C(=O)NCC(c2ccccc2)N(C)C)c1 (stereo not shown) | -9.36%
CC(C(=O)NC1CCCC1)N(C(=O)Cn1nnc(-c2ccc(F)cc2)n1)c1ccccc1F (stereo not shown) | 0.403%
COc1ccccc1Cn1c(=S)[nH]c2cc(C(=O)NCCCN3CCOCC3)ccc2c1=O | -7.16%
O=C(Cc1ccccc1)N/N=C/c1ccc[nH]1 | 21.7%
CC(=O)c1c(C)[nH]c(C(=O)N2CCN(c3ccccn3)CC2)c1C | 10.4%
CC(C)(C)C(=O)CC(=O)Nc1ccc(Cl)c(N)c1 | 14.1%
O=C(Nc1cc(S(=O)(=O)N2CCCC2)ccc1OCC(F)(F)F)c1ccccc1F | 18.5%
CC(C)n1c(SCC(=O)c2ccc3c(c2)OCCO3)nc2c1c(=O)n(C)c(=O)n2C | 2.04%
COc1cccc(N2CCN(CC(=O)Nc3ccc(-n4cnnn4)cc3)CC2)c1 | 7.28%
CC1CN(C(=O)CCC(=O)N2CCCCC2)c2ccccc2O1 (stereo not shown) | 7.55%
CC(=O)c1cccc(-n2c(CCC(=O)O)ccc2-c2ccccc2)c1 | 18.1%
CC(C)CNC(=O)Cn1c(=O)c2c(ncn2CC(C)C)n(Cc2ccccc2)c1=O | 13.2%
CCOc1ccc2nc3c(cc2c1)CN(CCOC)C(=NCCOC)S3 | -5.18%
CCOc1ccccc1/C=C/c1onc(C)c1S(=O)(=O)N1CCC(C(=O)NC)CC1 | -4.96%
Clc1ccc(-c2nnc(CCc3ccccc3)o2)c(Cl)c1 | -3.82%
CN(C)CCNc1ncnc2sc(-c3ccccc3)cc12 | -21.1%
CN(C)c1c(F)cc(C(=O)NC(=O)NCc2cccnc2)cc1F | 7.15%
Cc1cccc(NC(=O)c2cnn(-c3ccccc3)c2C)c1C | 15.4%
COc1ccc(C(=O)NC2CCN(CC(=O)N3CCCCC3)CC2)cc1 | 13.6%
COC(=O)C1=C(C)Nc2nnnn2C1c1ccc(Cl)cc1Cl (stereo not shown) | -1.24%
CCCCCc1n[nH]c2c1CCCC2 | 15.6%
c1ccc2c(Oc3ccc4c(c3)OCO4)nncc2c1 | 5.15%
CCCCC/C=C/C1=CC(=O)C[C@H](c2ccc(Cl)cc2)C1 | -47.4%
